Test results taken from the supplement of paper PMC4967469.
By IC50 is meant the dose at which the fit gives 50% viability; where the fit passes the top or lowest dose, that dose stands as a limit. AUC is the area under the same curve over the 256-fold range up to the top dose, as a fraction; it is 1 without any effect and falls as sensitivity rises. For some of these results: Any top dose called inferred is not printed in the source and was worked back from the curve model.

Experiments:
Assay in all cases: Viability of human cancer cell lines after 72 h of drug (GDSC screen)
Trametinib = compound: CC(=O)Nc1cccc(-n2c(=O)n(C3CC3)c(=O)c3c(Nc4ccc(I)cc4F)n(C)c(=O)c(C)c32)c1 [Trametinib]; settings: top dose 1 µM
Description: (§1)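 Human cancer cell lines in 384-well plates, medium with 10% serum, drug for 72 h over a 256-fold dose range (nine 2-fold or five 4-fold steps up to the top dose). Adherent lines were fixed and stained with the nucleic acid dye Syto60, suspension lines read with resazurin; signal relative to control wells, capped at 0 and 100%. One two-parameter sigmoid per drug and line, fitted in a mixed model over all curves with the slope shared within a line.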

I-BET-762 = compound: CCNC(=O)C[C@@H]1N=C(c2ccc(Cl)cc2)c2cc(OC)ccc2-n2c(C)nnc21 [I-BET-762]; settings: top dose 20 µM; top dose inferred
Description: as §1

PF-4708671 = compound: CCc1cncnc1N1CCN(Cc2nc3ccc(C(F)(F)F)cc3[nH]2)CC1 [PF-4708671]; settings: top dose 10 µM; top dose inferred
Description: as §1

AV-951 = compound: COc1cc2nccc(Oc3ccc(NC(=O)Nc4cc(C)on4)c(Cl)c3)c2cc1OC [AV-951]; settings: top dose 0.128 µM; top dose inferred
Description: as §1

KIN001-244 = compound: O=C(NC(COc1ccc2[nH]c(=O)[nH]c2c1)c1ccccc1)c1cccn(Cc2ccc(F)c(F)c2)c1=O [KIN001-244]; settings: top dose 20 µM; top dose inferred
Description: as §1

HG-6-64-1 = compound: CCN1CCN(Cc2ccc(NC(=O)c3ccc(C)c(/C=C/c4cnc5[nH]ccc5c4OC)c3)cc2C(F)(F)F)CC1 [HG-6-64-1]; settings: top dose 5.12 µM; top dose inferred
Description: as §1

Cell Line | AUC (Trametinib) | IC50 (Trametinib) [µM] | AUC (I-BET-762) | IC50 (I-BET-762) [µM] | AUC (PF-4708671) | IC50 (PF-4708671) [µM] | AUC (AV-951) | IC50 (AV-951) [µM] | AUC (KIN001-244) | IC50 (KIN001-244) [µM] | AUC (HG-6-64-1) | IC50 (HG-6-64-1) [µM]
SK-GT-4 (oesophagus, adherent) | 0.381 | 0.027 | 0.826 | 16.3 | 0.947 | > 10 | 0.975 | > 0.128 | 0.877 | > 20 |  | 
SK-MG-1 (glioma, adherent) | 0.879 | > 1 | 0.958 | > 20 | 0.986 | > 10 | 0.98 | > 0.128 | 0.852 | 15.7 |  | 
SNU-61 (large intestine, adherent) | 0.734 | 0.367 | 0.788 | 12 | 0.911 | > 10 | 0.953 | > 0.128 | 0.887 | > 20 |  | 
SNU-81 (large intestine, adherent) | 0.772 | 0.522 | 0.974 | > 20 | 0.96 | > 10 | 0.973 | > 0.128 | 0.872 | > 20 |  | 
SNU-407 (large intestine, adherent) | 0.324 | 0.0184 | 0.674 | 4.17 | 0.951 | > 10 | 0.978 | > 0.128 | 0.665 | 3.9 |  | 
SNU-C5 (large intestine, adherent) | 0.613 | 0.132 | 0.952 | > 20 | 0.986 | > 10 | 0.971 | > 0.128 | 0.952 | > 20 |  | 
STS-0421 (soft tissue, adherent) | 0.646 | 0.171 |  |  |  |  |  |  |  |  | 0.645 | 0.866
SW1116 (large intestine, adherent) | 0.508 | 0.0662 | 0.981 | > 20 | 0.944 | > 10 | 0.98 | > 0.128 | 0.985 | > 20 |  | 
T47D (breast, adherent) | 0.936 | > 1 |  |  | 0.883 | > 10 | 0.972 | > 0.128 | 0.737 | 8.78 | 0.93 | > 5.12
TE-4 (oesophagus, adherent) | 0.461 | 0.0488 | 0.97 | > 20 | 0.974 | > 10 | 0.986 | > 0.128 | 0.977 | > 20 |  | 
U-2-OS (osteosarcoma, adherent) | 0.509 | 0.0661 |  |  | 0.953 | > 10 | 0.971 | > 0.128 | 0.985 | > 20 | 0.632 | 0.768
UWB1.289 (ovary, adherent) | 0.765 | 0.556 | 0.935 | > 20 | 0.972 | > 10 | 0.977 | > 0.128 | 0.851 | > 20 |  | 
YH-13 (glioma, adherent) | 0.71 | 0.254 | 0.895 | > 20 | 0.947 | > 10 | 0.963 | > 0.128 | 0.881 | > 20 |  | 
